Experimental data as given in patent US20230272055A1, “ANTI-MUTANT CALRETICULIN (CALR) ANTIBODIES AND USES THEREOF” (Incyte Corporation, priority 2021, published 2023).

Assays:
[1] = biological target: T1, recombinant MBP-mutCALR Type 1 fusion protein (Homo sapiens, UniProt P27797, DEL40-40); assay: Biacore SPR binding kinetics, Experiment 1; conditions: Biacore 8K, 25° C., 1:1 binding model
T1 construct: His6 (N); purchased Cepter (cepterbiopartners.com), custom made
Procedure: (§1) The amino acid sequence of recombinant MBP-mutCALR Type 1 fusion protein used in Experiments 1 and 2 is:
Experiment 1: Recombinant MBP-mutCALR Type 1 fusion protein was custom made at Cepter (cepterbiopartners.com). Data for the interaction of antibodies with recombinant MBP-mutCALR Type 1 fusion protein were collected at 25° C. on a Biacore 8K instrument (Cytiva, Marlborough, Mass.), and all reagents were obtained from Cytiva unless otherwise specified. The experiments were conducted using Tris-buffered saline (pH 7.2), 0.005% Surfactant P20, 1 mM CaCl2) as running buffer. To prepare the capture surfaces, anti-human IgG (Fc) antibodies (Product #29234600) was amine-coupled onto a CM4 chip (Product #BR100534) under standard conditions using an Amine Coupling Kit (Product #BR100050). Anti-mutCALR antibodies were captured onto the chip surface by injecting over flow cell 2 only at a flow rate of 30 μL/min for 30 seconds. […] The kinetics parameters were obtained by applying 1:1 binding model to fit the data from multiple-cycle injection experiments using Biacore Insight Evaluation software.

[2] = test system: Ba/F3 cells transfected with MPL and mutCALR Type 1; assay: Inhibition of cell proliferation, CellTiter-Glo 72 hours, mutCALR Type 1; assay type: cell-based; conditions: Ba/F3 engineered cells, high-throughput primary screening
Procedure: To test the ability of anti-mutCALR antibodies to inhibit cell proliferation, engineered Ba/F3 cells transfected with MPL and mutCALR Type 1 were plated at 5,000 cells per well in RPMI 1640+2% FBS, antibodies added, incubated for 72 hours, and followed by assessment of cell viability using the CellTiter-Glo Luminescent Cell Viability Assay (Promega, Madison, Wis.) and Top Count (Perkin Elmer, Boston, Mass.) or Pherastar (BMG Labtech, Ortenberg, Germany) for luminescence quantification. Anti-mutCALR antibodies inhibit mutCALR-induced oncogenic cell proliferation in a dose-dependent manner in both the Ba/F3 engineered cells (FIG. 2).
To test the ability of anti-mutCALR antibodies to inhibit oncogenic cell proliferation triggered by the Type 1 and Type 2 CALR mutations, Ba/F3 cells (DSMZ) were engineered to express MPL+mutCALR Type 1 (52 bp deletion, SEQ ID NO:320) or MPL+mutCALR Type 2 (5 bp insertion; SEQ ID NO:321). Cells were plated at 5,000 cells per well in RPMI 1640+2% FBS, antibodies added, incubated for 72 hours, and followed by assessment of cell viability using the CellTiter-Glo Luminescent Cell Viability Assay (Promega, Madison, Wis.) and Top Count (Perkin Elmer, Boston, Mass.) or Pherastar (BMG Labtech, Ortenberg, Germany) for luminescence quantification. Anti-mutant CALR antibodies show potency to inhibit mutCALR-induced oncogenic cell proliferation associated with both Type 1 and Type 2 mutations (FIG. 3).

[3] = test system: BaF3 cells expressing MPL/mutCALR Type 1; assay: Example 16 inhibition of cell proliferation, CellTiter-Glo 72 hours; assay type: cell-based; conditions: BaF3 cells expressing MPL/mutCALR Type 1, 72 hours
Procedure: The ability of the five antibodies shown here to inhibit cell proliferation was tested. Inhibition of cell proliferation was assessed using engineered BaF3 cells expressing MPL/mutCALR Type 1. Cells were plated at 5,000 cells per well in RPMI 1640+2% FBS, antibodies were added and incubated for 72 hours, followed by assessment of cell viability using the CellTiter-Glo Luminescent Cell Viability Assay (Promega, Madison, Wis.) and Top Count (Perkin Elmer, Boston, Mass.) or Pherastar (BMG Labtech, Ortenberg, Germany) for luminescence quantification. […] The data shown in FIGS. 21A and 21B were compiled from different experiments.

[4] = test system: Ba/F3-TPOR/mutCALR type 1 engineered cells; assay: Cell proliferation with antibody and/or ruxolitinib, mutCALR Type 1; assay type: cell-based; conditions: log value, 72 hours
Procedure: To test the ability of anti-mutCALR antibodies to potentiate the therapeutic response of the JAK1/2 inhibitor ruxolitinib, Ba/F3 cells were engineered to express MPL+mutCALR Type 1 (52 bp deletion) or MPL+mutCALR Type 2 (5 bp insertion) as described above. Cells were plated at 5,000 cells per well in RPMI 1640+2% FBS, treated with 50 nM of ruxolitinib and/or anti-mutCALR antibodies. Cells were incubated for 72 hours followed by assessment of cell viability using the CellTiter-Glo Luminescent Cell Viability Assay (Promega, Madison, Wis.) and Top Count (Perkin Elmer, Boston, Mass.) or Pherastar (BMG Labtech, Ortenberg, Germany) for luminescence quantification. Ruxolitinib used at a concentration of 50 nM inhibited the level of oncogenic cell proliferation by approximately 20% (dotted line).

[5] = test system: MPL-mutCALR cells (BaF3 cells stably expressing human MPL and human mutCALR); assay: Flow cytometry binding to cell surface MPL and mutCALR (GMFI, four parameter fit); conditions: cell binding, GMFI, four parameter curve fitting
Procedure: To assess binding of CALR antibodies to cell surface CALR, parental BaF3 (DSMZ) cells or BaF3 cells stably expressing only human MPL or both human MPL (Uniprot Number: P40238-1) and human mutCALR Type 1 and Type 2 were used. On the day of the assay, cells were washed and resuspended in assay buffer. Approximately 200,000 cells/well were added to 96-well plates and stained with the indicated concentration of antibodies for 30 minutes on ice. Cells were then washed and stained with goat anti-human secondary conjugated to R-phycoerythrin (R-PE) (Jackson Immuno Research Laboratories) for 30 minutes on ice. The cells were then washed and analyzed by flow cytometry. Geometric Mean Fluorescence Intensity (GMFI) of cell binding was graphed and EC50, hill slope, and area under the curve (AUC) were determined after four parameter curve fitting using GraphPad Prism Software (version 7.04).

[6] = biological target: T1, recombinant MBP-mutCALR Type 1 fusion protein; assay: Biacore SPR binding kinetics, Experiment 2 (parental and variant antibodies); conditions: Biacore 8K, 25° C., 1:1 binding model
Procedure: as §1
Experiment 2: Recombinant MBP-mutCALR Type 1 fusion protein was custom made at Cepter (cepterbiopartners.com). Data for the interaction of antibodies with recombinant mutCALR protein were collected at 25° C. on a Biacore 8K instrument (Cytiva, Marlborough, Mass.), and all reagents were obtained from Cytiva unless otherwise specified. The experiments were conducted using Tris-buffered saline (pH 7.2), 0.005% Surfactant P20, 1 mM CaCl2) as running buffer. To prepare the capture surfaces, anti-human IgG (Fc) antibodies (Product #29234600) was amine-coupled onto a CM4 chip (Product #BR100534) under standard conditions using an Amine Coupling Kit (Product #BR100050). Anti-mutCALR antibodies were captured onto the chip surface by injecting over flow cell 2 only at a flow rate of 10 μL/min for 30 seconds. […] Recombinant MBP-mutCALR Type 1 fusion protein was prepared at nominal concentrations of 0, 0.75, 2.22, 6.67, 20, and 60 nM and injected over both flow cells 1 and 2 for 150 seconds at a flow rate of 69 L/min, followed by a 230-second dissociation phase at the same flow rate. The kinetics parameters were obtained by applying 1:1 binding model to fit the data from multiple-cycle injection experiments using Biacore Insight Evaluation software.

ka [1]	kd [1]	IC50 inhibition of cell proliferation [2]	IC50 for anti-mutCALR antibody mediated inhibition of cell proliferation [3]	Log IC50, Antibody alone [4]	Log IC50, Antibody + ruxolitinib ([4]; with 50 nM ruxolitinib)	ka [6]	kd [6]	Log IC50, Antibody alone (extrapolated from fitted curve) ([4]; marked *)	Log IC50, Antibody + ruxolitinib (extrapolated from fitted curve) ([4]; with 50 nM ruxolitinib, marked *)	Molecule	MPL-mutCALR Hill Slope [5]
322000 M⁻¹ s⁻¹	0.0018 s⁻¹	0.1042 mg/L	21 mg/L							39 (antibody) heavy: EVQLVQSGAEVKKPGSSVKVSCKASGGTFSSYAISWVRQAPGQGLEWMGLVDPEDGETIYAEKFQGRVTITADTSTDTAYMELSSLRSEDTAVYYCATEESYGPWGQGTLVTVSSASTKGPSVFPLAPSSKSTSGGTAALGCLVKDYFPEPVTVSWNSGALTSGVHTFPAVLQSSGLYSLSSVVTVPSSSLGTQTYICNVNHKPSNTKVDKRV[omitted - human IgG1 Fc] light: DIQLTQSPSSLSASVGDRVTITCQASQDISNYLDWYQQKPGKAPKLLIYDASNLETGVPSRFSGSGSGTEFTLTISSLQPEDFATYYCQQLNSYPLTFGGGTKLEIKRTVAAPSVFIFPPSDEQLKSGTASVVCLLNNFYPREAKVQWKVDNALQSGNSQESVTEQDSKDSTYSLSSTLTLSKADYEKHKVYACEVTHQGLSSPVTKSFNRGEC	
1.28e+06 M⁻¹ s⁻¹	0.00268 s⁻¹	1.9070 mg/L		−0.035 μg/mL	0.542 μg/mL					38 (antibody) heavy: EVQPVQSGAEVKKPGSSVKVSCKASGGTFSSYAISWVRQAPGQGLEWMGLVDPEDGETIYAEKFRGRVTITADTSTDTAYMELSSLRSEDTAVYYCATEESYGPWGQGTLVTVSSASTKGPSVFPLAPSSKSTSGGTAALGCLVKDYFPEPVTVSWNSGALTSGVHTFPAVLQSSGLYSLSSVVTVPSSSLGTQTYICNVNHKPSNTKVDKRV[omitted - human IgG1 Fc] light: DIQLTQSPSSLSASVGDRVTITCQASQDISNYLNWYQQKPGKAPKLLIYDASNLETGVPSRFSGSGSGTEFTLTISSLQPEDFATYYCQQLNSYPLTFGGGTKLEIKRTVAAPSVFIFPPSDEQLKSGTASVVCLLNNFYPREAKVQWKVDNALQSGNSQESVTEQDSKDSTYSLSSTLTLSKADYEKHKVYACEVTHQGLSSPVTKSFNRGEC	0.45
235000 M⁻¹ s⁻¹	0.00109 s⁻¹	0.9771 mg/L				636000 M⁻¹ s⁻¹	0.000524 s⁻¹	−1.585* μg/mL	−4.962* μg/mL	51 (antibody) heavy: EVQLVQSGAEVKKPGSSVKVSCKASGGTFSSYAISWVRQAPGQGLEWMGGIIPIFGTANYAQKFQGRVTITADESTSTAYMELSSLRSEDTAVYYCASSPLRGSGWYWHYYYGMDVWGQGTTVTVSSASTKGPSVFPLAPSSKSTSGGTAALGCLVKDYFPEPVTVSWNSGALTSGVHTFPAVLQSSGLYSLSSVVTVPSSSLGTQTYICNVNHKPSNTKVDKRV[omitted - human IgG1 Fc] light: SYELTQPPSVSVAPGKTARITCGGNKIGTKSVHWYQQKPGQAPVLVIYQDSKRPSGIPERFSGSNSGNTATLTISGTQAMDEADYYCQAWGSSTVVFGGGTKLTVLGQPKAAPSVTLFPPSSEELQANKATLVCLISDFYPGAVTVAWKADSSPVKAGVETTTPSKQSNNKYAASSYLSLTPEQWKSHRSYSCQVTHEGSTVEKTVAPTECS	1.31
